PubChem BioAssay (NCATS)
Inconclusive results, whose numbers are uncertain, are shown with a selection of clear calls. Potencies beside an inconclusive call are fits to weak or partial responses and may not hold up. Calls of active or inactive are those of the source. The call rests on the fitted dose curve; in most records, active means well fitted cell-killing curve with a large enough effect; inconclusive means small, poorly fitted or top-dose-only effect, or effect the other way; inactive means flat fitted curve, though single readings scatter.

These compounds were tested on Es-2 (assay: Primary qHTS to identify gynecologic anti-cancer compounds using libraries of approved drugs and bioactive compounds (AID 1345084; further: nearly all actives have a fitted effect of over 55% in size)). Conditions: Gynecologic cancer cell panel viability, ATPlite luminescence, 48 h; series mostly up to 57.5 µM.
In short: (§1)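 ATP-based viability (ATPlite), 1,000 cells/well, 16 h pre-incubation, 48 h compound at 37 C, 5% CO2, 15 min RT before read.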
Potency means the concentration at half of the fitted maximal effect; tags describe the fitted curve by direction and shape.

Structure (SMILES)	Potency
CC(=O)NC1=NN(C(C)=O)C(C)(c2ccccc2)S1 (stereo unspecified)	inconclusive: 7.94 µM [cytotoxic, full curve]
CNC(=O)c1cccc(-c2ccc3c(N4CCOC[C@@H]4C)nc(N4CCOC[C@@H]4C)nc3n2)c1	inconclusive: 1.41 µM [cytotoxic, full curve]
COc1ccc(F)cc1-c1cc(NC(=O)[C@@H]2CCCNC2)ncc1Cl	active: 0.794 µM
C=C(CCC1=C(C)[C@H]2[C@H](CC3[C@@H]4CC=C5C[C@@H](O)C[C@@H](O)[C@]5(C)C4[C@H](O)C[C@@]32C)O1)CO[C@@H]1O[C@H](CO)[C@@H](O)[C@H](O)[C@H]1O (stereo partly specified)	active: 3.16 µM
C=C1C(=O)O[C@H]2/C=C(/C)[C@@H](OC(C)=O)C/C=C(\C)C[C@@H](OC(=O)/C(=C/C)COC(=O)/C(=C/C)CO)[C@@H]12	inconclusive: 17.8 µM [cytotoxic, single point]
Cc1ccccc1-n1c([C@H](C)Nc2nc(N)nc3nc[nH]c23)nc2cccc(C)c2c1=O	inconclusive: 28.2 µM [cytotoxic, partial curve]
CC1CCN(C(=O)CC#N)CC1N(C)c1ncnc2[nH]ccc12 (stereo unspecified)	inactive
C/C1=C\CCC2=CC(OC2=O)C(C)(C)/C=C/C1=O (stereo unspecified)	inconclusive: 35.5 µM [cytotoxic, single point]
COc1cc2nc(N3CCN(C)CC3)nc(NC3CCN(Cc4ccccc4)CC3)c2cc1OC	inconclusive: 11.2 µM [cytotoxic, partial curve]
CC(=O)O[C@H]1CC(C)(C)CC2[C@]13CO[C@@]21CCC2[C@@]4(C)CC[C@H](O[C@@H]5OC[C@H](O[C@@H]6O[C@H](CO)[C@@H](O)[C@H](O)[C@H]6O[C@@H]6OC[C@@H](O[C@@H]7O[C@H](CO)[C@@H](O)[C@H](O)[C@H]7O)[C@H](O)[C@H]6O)[C@H](O)[C@H]5O[C@@H]5O[C@H](CO)[C@@H](O)[C@H](O)[C@H]5O)[C@@](C)(CO)C4CC[C@@]2(C)[C@]1(C)C[C@H]3O (stereo partly specified)	inconclusive: 4.47 µM [cytotoxic, single point]
CCN(CC)CCOc1ccc2c(c1)C(=O)c1cc(OCCN(CC)CC)ccc1-2	inconclusive: 35.5 µM [cytotoxic, single point]
CN1CCc2cccc3c2[C@H]1Cc1ccc(O)c(O)c1-3	inconclusive: 39.8 µM [cytotoxic, single point]
CC(=O)O[C@@](C)(C(=O)/C=C/C(C)(C)O)[C@H]1[C@H](O)C[C@@]2(C)[C@@H]3CC=C4[C@@H](C=C(O)C(=O)C4(C)C)[C@]3(C)C(=O)C[C@]12C	inconclusive: 17.8 µM [cytotoxic, single point]
Cc1cc(C)c(Nc2ccnc(Nc3ccc(C#N)cc3)n2)c(C)c1	inconclusive: 39.8 µM [cytotoxic, single point]
C=C1C(=O)O[C@@H]2C[C@H](C)[C@@H]3CC(=O)C(C)=C3C[C@H]12	inconclusive: 31.6 µM [cytotoxic, single point]
CCNC(=O)C#Cc1ccc2c(C(=Nc3ccc(CN(C)C)cc3)c3ccccc3)c(O)[nH]c2c1	inconclusive: 2.51 µM [cytotoxic, partial curve]
CC(=O)NCC(=O)N1C2CCC1c1cc(Nc3ncc(C(F)(F)F)c(NC4CCC4)n3)ccc12 (stereo unspecified)	active: 14.1 µM

Each compound was assayed on HeLa in the same assay as above. Conditions: Gynecologic cancer cell panel viability, ATPlite luminescence, 48 h; series mostly up to 57.5 µM.
In short: as §1

Structure (SMILES)	Potency
CC(=O)NC1=NN(C(C)=O)C(C)(c2ccccc2)S1 (stereo unspecified)	active: 14.1 µM
CNC(=O)c1cccc(-c2ccc3c(N4CCOC[C@@H]4C)nc(N4CCOC[C@@H]4C)nc3n2)c1	inconclusive: 8.91 µM [cytotoxic, partial curve, poor fit]
Nc1ncnc2c1nc(N)n2[C@@H]1O[C@H](CO)[C@@H](O)[C@H]1O	active: 5.01 µM
C[C@@H](O[C@H]1OCCN(Cc2n[nH]c(=O)[nH]2)[C@H]1c1ccc(F)cc1)c1cc(C(F)(F)F)cc(C(F)(F)F)c1	inconclusive: 28.2 µM [cytotoxic, partial curve, poor fit]
O=C(/C=C/c1ccc(O)c(O)c1)O[C@H]1[C@H](OC2CCCCC2O)O[C@H](CO)[C@@H](O)[C@@H]1O (stereo partly specified)	active: 11.2 µM
Cc1ccccc1-n1c([C@H](C)Nc2nc(N)nc3nc[nH]c23)nc2cccc(C)c2c1=O	inconclusive: 14.1 µM [cytotoxic, partial curve, poor fit]
Cc1c(NC(=O)c2cc(C(N)=O)nc3cc(F)ccc23)c(C(F)(F)F)nn1Cc1ccc(C#N)cc1	inconclusive: 5.62 µM [cytotoxic, partial curve, poor fit]
CN1CCc2cccc3c2[C@H]1Cc1ccc(O)c(O)c1-3	inconclusive: 10 µM [cytotoxic, partial curve]
CC(=O)O[C@@](C)(C(=O)/C=C/C(C)(C)O)[C@H]1[C@H](O)C[C@@]2(C)[C@@H]3CC=C4[C@@H](C=C(O)C(=O)C4(C)C)[C@]3(C)C(=O)C[C@]12C	active: 2.51 µM
Cc1cc(C)c(Nc2ccnc(Nc3ccc(C#N)cc3)n2)c(C)c1	inconclusive: 39.8 µM [cytotoxic, single point]
CCNC(=O)C#Cc1ccc2c(C(=Nc3ccc(CN(C)C)cc3)c3ccccc3)c(O)[nH]c2c1	inconclusive: 3.98 µM [cytotoxic, partial curve, poor fit]
CC(=O)NCC(=O)N1C2CCC1c1cc(Nc3ncc(C(F)(F)F)c(NC4CCC4)n3)ccc12 (stereo unspecified)	inconclusive: 22.4 µM
Cc1c(NC(=O)OCC2COCCN2)cn2ncnc(Nc3ccc4c(cnn4Cc4cccc(F)c4)c3)c12 (stereo unspecified)	inactive
CN1CCN(c2ccc(C(=O)Nc3n[nH]c4ccc(Cc5cc(F)cc(F)c5)cc34)c(NC3CCOCC3)c2)CC1	inconclusive: 39.8 µM [cytotoxic, single point]
